B1: LINE1-mini (parent)
chain: GGCAGAGCUCAACACAGCGUGGCAAAGUGGCUGUGGCUAGACUGCC

The source gives no read counts; variants with many changes may rest on few reads.

The variants in the series derive from B1. Kind of series: self-cleavage, relative activity (ratio to wild type); higher = more cleavage; in vitro, sequencing; the parent is a self-cleaving ribozyme.
Regarding GGCAGAGCUCAGUACAGCGUGGCCAAGUCGCUGUGGGUAGACUGCC [A12G C13U A24C G29C C37G], the self-cleavage was 0.01. The result for GGCAGAGCUCAGCACAGCGUGGCAAAGUGGCUGUCGCAAGACUGCC [A12G G35C U38A] reads 0.08; that for GGCAGAGCUCAGCACAGGGUGGUAAAAUGGCUGUGGCUAGACUGCC [A12G C18G C23U G27A], 0.01. With GGCAGAGCUCAGCAUAGCGUGCCAAAGUGGCUGUGGCUACACUGCC [A12G C15U G22C G40C] the figure was 0.02.

In the case of GGCAGAGCUCAGCACAUCGUGGCAAAGUGGCUAUGGCUAGACUGCC [A12G G17U G33A], the self-cleavage turned out to be 0.03.

For GGCAGAGCUCAGCACAUCGUGGCUAAGUGGCUGUGGCUAUACAGCC [A12G G17U A24U G40U U43A], the self-cleavage was determined as 0.01.

Consider GGCAGAGCUCAGCACACCGUGGCAAAGUGGGUGUGGCUAGACUGCC [A12G G17C C31G], for which the self-cleavage worked out at 0.

As for GGCAGAGCUCAGCACAGCGUGGCAAAUCGGUUGUGGCUAGAUUGCC [A12G G27U U28C C31U C42U], the self-cleavage was 0.11.

In the case of GGCAGAGCUCAGCACAGCGUGGCAAAGUGGCUGUGGCUAGAUUGUC [A12G C42U C45U], the self-cleavage is 0.02.

Take GGCAGAGCUCAGCACAGCGUGGAAAAGUUGCUGUGGCUAGACUGCC [A12G C23A G29U]: the self-cleavage turned out to be 0.02.

With GGCAGAGCUCAGCACAGCGUGGCAAGGUGGCUGUGGCUAGAUUGCC [A12G A26G C42U], the self-cleavage worked out at 0.13. With GGCAGAGCUCAGCACAGCGUGGCAAAGUGGCUGUGGCUAGAGUCCC [A12G C42G G44C] the figure was 0. The result for GGCAGAGCUCAGCACAGACUGGCAAAGUGGCUGUGGCUAGACUGCU [A12G C18A G19C C46U] reads 0.03; that for GGCAGAGCUCAGCACAGCGUGGCAAACUGGCUGUGGGUAGACUGCC [A12G G27C C37G], 0.

For GGCAGAGCUCAGCACAGCGUGGCAAAGUGGUUGUGGCUAGACAGCC [A12G C31U U43A], the self-cleavage is 0.02. With GGCAGAGCUCAGCACAUCGUGGCAAAGUGGCUGUGGCUAGACGGCC [A12G G17U U43G] the figure was 0; with GGCAGAGCUCAGUACAGAUUGGCAAAGUGGCUGUGGCUAGACUGCC [A12G C13U C18A G19U], 0.05; with GGCAGAGCUCAGCACAGUGUGGCAACUUCGCUGUGGCUAGACUGCC [A12G C18U A26C G27U G29C], 0.

As to GGCAGAGCUCAGCACAGCGUGACACAGUGGCUGUGGCUAGACUGCA [A12G G22A A25C C46A], the self-cleavage is 0.02. The result for GGCAGAGCUCAGCAACGCGUGGCAAAGUGGUUGAGGCUAGACUGCC [A12G C15A A16C C31U U34A] reads 0.01; that for GGCAGAGCUCAGCACAGCGUGCCAUAGUGGCUGUGGCUAGACUGCC [A12G G22C A25U], 0.03; that for GGCAGAGCUCAGCACAGCGUGGCAAACUGGCUGCGGGUAGACUGCC [A12G G27C U34C C37G], 0.02. With GGCAGAGCUCAGCAAAGCGUUGCAAAGUGGCUGUGGUUAGACUGCC [A12G C15A G21U C37U] the figure was 0.06; with GGCAGAGCUCAGCACAGCGUUGCAAAGUGGCUGUUGCUAGGCUGCC [A12G G21U G35U A41G], 0.01. Turning to GGCAGAGCUCAGCACAGCGUGGCAAAGUGGCUACGGCUAGAAUGCC [A12G G33A U34C C42A], the self-cleavage stood at 0.17. Turning to GGCAGAGCUCAGCACAGCGUGGUAAAGUGGCUGUGGCUAGACUCCC [A12G C23U G44C], the self-cleavage turned out to be 0.04. With GGCAGAGCUCAGCACAGCGUGGUAAAGUUGCUGUGGCUAGACUGCC [A12G C23U G29U] the figure was 0; with GGCAGAGCUCAGCAUAGCGUGGCAAAGCGGCUGUGGUUAGACUGCC [A12G C15U U28C C37U], 0.02; with GGCAGAGCUCAGCAUAUCGAGGCAAAGUGGCUGUGGCUAUACUGCC [A12G C15U G17U U20A G40U], 0.02. The result for GGCAGAGCUCAGCACAGCGUGGCAAACUGGCUGUGGCUAGACUGGC [A12G G27C C45G] reads 0.02; that for GGCAGAGCUCAGCACAGCGUGACAAAGUGGCAGUGGCAAGACUGCC [A12G G22A U32A U38A], 0.01. Consider GGCAGAGCUCAGCACAGCGUAACAAAGUGGCUGUGAAUAGACUGCC [A12G G21A G22A G36A C37A], for which the self-cleavage amounted to 0.03.

Turning to GGCAGAGCUCAGCACAGCGAGGCAAAGUGGCUGUGGCUAGUCUGCC [A12G U20A A41U], the self-cleavage is 0.03. Turning to GGCAGAGCUCAGCACAGCGUGGAAAAGUGGCUGUGGCUAGACUGUC [A12G C23A C45U], the self-cleavage turned out to be 0. With GGCAGAGCUCAGGACAGCGUGGCAAAGUGGCUGUCGCUAGACUGCC [A12G C13G G35C] the figure was 0.01; with GGCAGAGCUCAGCACAGCGUGGCAAAGUGGCUGUGGGUAGACUGUC [A12G C37G C45U], 0.04. The result for GGCAGAGCUCAGUACAGCGUGGCAAAGUGGCUGUGGCUAGGCUGCC [A12G C13U A41G] reads 0.03; that for GGCAGAGCUCAGCACAGCGUGGCAAUGUCGCUGUGGCUAGACUGCC [A12G A26U G29C], 0.03.

On to GGCAGAGCUCAGCAGAGCGUGGCCAAGUGGCUGUGGCUGGCCUGAC [A12G C15G A24C A39G A41C C45A], for which the self-cleavage was 0. The result for GGCAGAGCUCAGCAAAGCGAGGCACAGUGGCUGUGGCUAGACUGCC [A12G C15A U20A A25C] reads 0; that for GGCAGAGCUCAGCACAGGGUGGCAAAGUGGGUGUGUCUAGACUGCC [A12G C18G C31G G36U], 0.03; that for GGCAGAGCUCAGCACAGCGUGGCAAAGUGGCUGUGACUAGAUCGCC [A12G G36A C42U U43C], 0.11. With GGCAGAGCUCAGCACACCGUAGCAAAGUGGCUGUGGCUAGACUGCC [A12G G17C G21A] the figure was 0.01. Take GGCAGAGCUCAGCACAGCGUGUCAAAAUGGCUGUGGCUACACUGCU [A12G G22U G27A G40C C46U]: the self-cleavage came out at 0.04. The result for GGCAGAGCUCAGCACAUCGUGGCAAAGUGGCUGUUGCUAGACUGCC [A12G G17U G35U] reads 0.1; that for GGCAGAGCUCAGCACAGCGUAGCAAAGUGGCUGUGGCUAGACCGCC [A12G G21A U43C], 0.05; that for GGCAGAGCUCAGCACAGCGUGGCAAAGUGGCUGUCGCUAGACUGUC [A12G G35C C45U], 0.01. With GGCAGAGCUCAGCACAGCGUGACAAAGUGGCUGUGGUUAGACUGCC [A12G G22A C37U] the figure was 0.02. GGCAGAGCUCAGCACAGUGUGGCAAAGUGGCUGUGGUUAGACUGCC [A12G C18U C37U]: the self-cleavage stood at 0.08.

GGCAGAGCUCAGCACAGCGUGGCAAAGUUGCUGUGGUGAGACUGCC [A12G G29U C37U U38G]: the self-cleavage was 0.01. The result for GGCAGAGCUCAGCACAGCGAGGCAAGGUGGCUGUGGCUAGACUGCC [A12G U20A A26G] reads 0.

Take GGCAGAGCUCAGCACAGCUUGGCAAAGUGGCUGUGGCUAGAGUGGC [A12G G19U C42G C45G]: the self-cleavage was found to be 0.01. The result for GGCAGAGCUCAGCACAGCGUGGUAAAGUGGCUGAGGCUAGACUGCC [A12G C23U U34A] reads 0.02. With GGCAGAGCUCAGCACAGCGUGGCAAAUUGGCUGUCGCUAGACUGCC [A12G G27U G35C] the figure was 0.03; with GGCAGAGCUCAGCACAGCGUGGCAAAAUGGCUGUGGCCAGACUGCC [A12G G27A U38C], 0.11; with GGCAGAGCUCAGCACAGCGUGGCAAAGUGCCUGUGGCUAGAGUGCA [A12G G30C C42G C46A], 0.01.

The record behind these values is the RNAGym collection of RNA variant scans (doi:10.7554/elife.90254).
